In article PMC4336329 (PLoS ONE, 2015):
The campaign covered roughly 310,000 compounds. About 14,000 (4.5%) showed an effect of 50% or more. The effect is printed as a negative number. Some of the results follow.

What follows are molecules tested against human ether-à-go-go-related gene (hERG) potassium channel (human, UniProt Q12809) (assay: primary screen, population patch clamp on CHO cells stably expressing hERG).
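Note: peak tail current of the secondary pulse compared with the same well before compound.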

Chain of human ether-à-go-go-related gene (hERG) potassium channel (Q12809 whole entry, looked up): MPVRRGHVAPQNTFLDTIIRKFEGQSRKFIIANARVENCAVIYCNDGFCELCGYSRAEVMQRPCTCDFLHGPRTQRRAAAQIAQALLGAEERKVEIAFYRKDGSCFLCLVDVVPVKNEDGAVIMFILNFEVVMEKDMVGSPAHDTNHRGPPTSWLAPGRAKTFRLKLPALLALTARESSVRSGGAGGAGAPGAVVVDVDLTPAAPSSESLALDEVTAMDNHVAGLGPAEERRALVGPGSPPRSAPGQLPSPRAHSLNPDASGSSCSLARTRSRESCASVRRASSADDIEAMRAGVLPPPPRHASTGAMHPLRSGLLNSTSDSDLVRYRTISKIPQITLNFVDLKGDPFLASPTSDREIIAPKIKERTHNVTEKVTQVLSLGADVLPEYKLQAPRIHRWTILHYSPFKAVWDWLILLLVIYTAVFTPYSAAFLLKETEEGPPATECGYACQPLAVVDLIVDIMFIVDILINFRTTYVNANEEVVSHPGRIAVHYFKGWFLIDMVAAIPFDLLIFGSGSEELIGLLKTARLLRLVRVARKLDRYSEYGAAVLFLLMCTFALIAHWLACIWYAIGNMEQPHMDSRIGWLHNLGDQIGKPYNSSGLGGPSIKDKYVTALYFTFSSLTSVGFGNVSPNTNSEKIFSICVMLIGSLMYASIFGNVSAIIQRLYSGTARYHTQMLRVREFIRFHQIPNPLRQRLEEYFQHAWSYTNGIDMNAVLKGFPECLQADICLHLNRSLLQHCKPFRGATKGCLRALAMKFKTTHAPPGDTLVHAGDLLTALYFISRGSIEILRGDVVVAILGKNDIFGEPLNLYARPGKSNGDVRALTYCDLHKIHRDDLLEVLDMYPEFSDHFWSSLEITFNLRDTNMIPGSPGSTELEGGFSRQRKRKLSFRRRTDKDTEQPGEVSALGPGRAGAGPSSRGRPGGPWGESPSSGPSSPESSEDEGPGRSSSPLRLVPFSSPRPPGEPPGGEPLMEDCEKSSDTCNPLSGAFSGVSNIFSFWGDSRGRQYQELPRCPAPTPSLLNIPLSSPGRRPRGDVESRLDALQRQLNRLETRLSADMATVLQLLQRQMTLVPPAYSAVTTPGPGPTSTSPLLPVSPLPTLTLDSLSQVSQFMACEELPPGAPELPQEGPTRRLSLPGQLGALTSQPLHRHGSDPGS

Structure (SMILES)	hERG current change (%, negative = inhibition) at 10uM
COc1cc(NC(C)=O)ccc1-c1cc2ccccc2oc1=O	-7.81%
N#CC1=C(N)N=C(SCc2ccccc2)C(C(N)=O)C12CCCCC2 (stereo not shown)	-1.82%
CCOC(=O)c1nnn(-c2ccc(OC)cc2)c1N	8.4%
COc1ccc(/C=N/Nc2nnc(Cc3ccc(OC)c(OC)c3)c(=O)[nH]2)cc1	-1.91%
Cl.O=C(O)CN1C2=NCCCN2c2ccccc21	16.1%
CCN(CC(=O)NCc1cccs1)C(=O)c1ccc(NS(=O)(=O)c2ccc(F)cc2)cc1	-6.21%
Cc1cc(N)n2nc(-c3ccc(C(C)(C)C)cc3)cc2n1	8.26%
COc1ccc(NC(=O)CCS(=O)(=O)c2cccc3nonc23)cc1	13.2%
O=[N+]([O-])c1cccnc1NCCc1ccccc1	-18.9%
CCN1CCN(c2ncnc3c2sc(=S)n3-c2ccccc2)CC1	-6.04%
O=c1oc2ccccc2c2c1nc(C(F)(F)F)n2-c1ccccc1	0.356%
COCCN(C(=O)/C=C/c1ccccc1)c1c(N)n(Cc2ccccc2)c(=O)[nH]c1=O	10.8%
O=c1[nH]c(/C(=N\O)c2ccccc2)no1	25.8%
CCn1c(Oc2cccc(Br)c2)nc2c1c(=O)n(C)c(=O)n2C	15.4%
CSC1=NC2(CC(c3ccccc3)Oc3cc(O)ccc32)CC(C)(C)N1 (stereo not shown)	-76.1%
Cc1ccc(CN2CCC(n3nccc3NC(=O)C3CCOC3)CC2)cc1C (stereo not shown)	-20.5%
Cc1ccc(NC(=O)CSc2nnc(-c3cccnc3)o2)c(C)c1	3.3%
Cc1n[nH]c(=O)c2c(NC(=O)CSc3ccc(Br)cc3)oc(C)c12	-8.42%
COc1ccccc1NC(=O)CSc1nnc2ccccn12	6.98%
CN(CC(=O)NCCc1ccccc1)Cc1ccco1	13.9%
CCOc1cc(S(=O)(=O)N2CCN(c3ccc(F)cc3)CC2)c(OCC)cc1-n1cnnn1	-23.2%
CCOc1ncccc1C(=O)N1CCN(C(=O)c2ccccc2)CC1	16.5%
Cc1nc(N2CCN(Cc3ccc4c(c3)OCO4)CC2)c2cc(-c3ccccc3)sc2n1	17.6%

Structure (SMILES)	hERG current change (%, negative = inhibition) at 10uM
CN(C)/C=C(\C(=O)c1ccccc1)c1nnnn1-c1ccccc1	4.06%
OCCN1CCN(c2nc(-c3ccccc3O)nc3ccccc23)CC1	-25.1%
CC1(C)CN(C(=S)Nc2ccc(F)cc2F)C1=O	18.8%
O=C(NNC(=O)c1nn(-c2ccc(F)cc2)ccc1=O)c1ccc(Cl)cc1	-16.5%
COc1ccc(CCN2C(=O)CC(N3CCN(S(=O)(=O)c4ccccc4)CC3)C2=O)cc1 (stereo not shown)	-18.7%
Cc1ccc(NC(=O)COC(=O)CN2C(=O)NC(C)(C)C2=O)cc1S(=O)(=O)N1CCOCC1	17.4%
CC1CCC(C(C)C)C(OC(=O)COC(=O)c2cccn2C)C1 (stereo not shown)	16.1%
CC(Nc1cc(N2CCCC2)ccc1[N+](=O)[O-])c1ccccc1 (stereo not shown)	10.8%
Cc1cccc(-n2c(SCCC(=O)O)nnc2-c2cccs2)c1C	19.2%
Cn1nnnc1SCC(=O)c1ccc2c(c1)OCCO2	30%
COc1cccc(-c2nnc3sc(-c4ccccc4)nn23)c1	8.6%
O=C(Nc1ccccc1)c1cc([N+](=O)[O-])ccc1Cl	4.05%
S=C(Nc1ccccc1Cl)N(Cc1ccccc1)Cc1ccccn1	-20%
CCOC(=O)C1(CC2CC2)CCN(Cc2ccc(O)c(Cl)c2)CC1	-41.6%
Cc1ccc(-c2csc(N=C(N)N)n2)cc1	6.15%
Cc1nc(-c2ccccc2O)n(-c2ccccc2)n1	9.36%
Cc1ccc2ccc(S(=O)(=O)NCc3ccco3)cc2c1	-5.26%
Cc1ccc2c(c1)c1c3n2CCN(C(=O)Cn2c(-c4ccccc4)noc2=O)C3CCC1 (stereo not shown)	-5.64%
CCc1ccc(C(=O)Nc2cccnc2Oc2ccc(Cl)cc2)cc1	-4.34%
Cc1ccc(NC(=O)C(=O)c2c[nH]c3ccccc23)cc1	22.9%
CC(=O)N/N=C(/C)c1ccc(NC(=O)c2csc(C)c2C)cc1	21.4%
CC(C)=CCN1CCN(Cc2ccc(Oc3ncccn3)cc2)CC1CCO (stereo not shown)	9.1%
COc1ccccc1/C=C/C(=O)OCCN1C(=O)c2ccccc2C1=O	4.79%
